# From PubChem BioAssay AID504332 (National Center for Advancing Translational Sciences (NCATS), 2011)
# The whole screen tested about 350,000 compounds, of which about 31,000 (8.9%) were called active. Inconclusive results, whose numbers are uncertain, are shown with a selection of clear calls. Calls come from the whole dose curve; as a rule, active = well fitted inhibition curve with a large enough effect; inconclusive = small, poorly fitted or top-dose-only effect; inactive = no such curve, though single readings can be large or run the other way. Where the call is inconclusive, the potency comes from a doubtful curve fit.
# Molecular target: Histone-lysine N-methyltransferase EHMT2 (Homo sapiens) (UniProt Q96KQ7)
# Sequence of UniProt Q96KQ7 (Q96KQ7 whole entry, looked up): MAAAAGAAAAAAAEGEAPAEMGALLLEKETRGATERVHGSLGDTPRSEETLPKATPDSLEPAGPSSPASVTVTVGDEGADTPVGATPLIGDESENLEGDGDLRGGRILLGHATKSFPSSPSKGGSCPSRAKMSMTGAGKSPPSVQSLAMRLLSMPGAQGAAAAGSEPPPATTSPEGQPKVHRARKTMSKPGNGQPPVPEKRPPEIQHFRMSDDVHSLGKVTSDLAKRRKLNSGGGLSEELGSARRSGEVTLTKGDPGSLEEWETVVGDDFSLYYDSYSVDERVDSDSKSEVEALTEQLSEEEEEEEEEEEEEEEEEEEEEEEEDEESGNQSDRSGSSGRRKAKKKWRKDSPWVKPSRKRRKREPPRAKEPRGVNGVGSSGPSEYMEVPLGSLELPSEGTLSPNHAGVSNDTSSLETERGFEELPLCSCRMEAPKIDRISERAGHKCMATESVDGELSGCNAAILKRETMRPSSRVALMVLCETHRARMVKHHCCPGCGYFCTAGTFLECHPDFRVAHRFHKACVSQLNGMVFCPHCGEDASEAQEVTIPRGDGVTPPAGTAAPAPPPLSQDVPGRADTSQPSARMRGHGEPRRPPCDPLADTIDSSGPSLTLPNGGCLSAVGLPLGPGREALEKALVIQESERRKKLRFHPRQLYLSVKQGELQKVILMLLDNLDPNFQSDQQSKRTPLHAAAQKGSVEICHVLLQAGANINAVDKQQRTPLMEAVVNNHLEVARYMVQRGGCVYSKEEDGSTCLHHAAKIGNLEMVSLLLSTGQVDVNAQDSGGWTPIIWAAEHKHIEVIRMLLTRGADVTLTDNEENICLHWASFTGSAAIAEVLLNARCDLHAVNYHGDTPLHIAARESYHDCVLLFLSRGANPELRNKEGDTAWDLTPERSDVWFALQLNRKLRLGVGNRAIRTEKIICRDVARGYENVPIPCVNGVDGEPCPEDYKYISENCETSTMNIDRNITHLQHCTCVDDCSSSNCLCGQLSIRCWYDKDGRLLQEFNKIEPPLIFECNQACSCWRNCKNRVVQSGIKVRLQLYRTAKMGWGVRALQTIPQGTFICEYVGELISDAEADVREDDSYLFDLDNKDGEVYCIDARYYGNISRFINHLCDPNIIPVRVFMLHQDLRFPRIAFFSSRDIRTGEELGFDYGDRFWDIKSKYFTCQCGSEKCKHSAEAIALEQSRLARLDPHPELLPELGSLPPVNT
# Test: qHTS Assay for Inhibitors of Histone Lysine Methyltransferase G9a; note: nearly all actives have a fitted effect of over 75% in size
# Details: G9a H3K9 monomethylation, AlphaScreen, 2 h
# How it was run: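 Step 1: enzyme (final 20 nM) with compound, 15 min RT. Step 2: substrate peptide 500 nM and SAM 20 uM, 2 h RT. Step 3: anti-H3K9me1 antibody and AlphaScreen beads, 10 min, then plate read.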
# Potency is the fitted concentration of half-maximal effect; tags give direction and shape of the fitted curve.
row,Compound,Potency
1,O=C(Nc1cccnc1)c1cc(-c2ccco2)on1,"inconclusive: 12.6 µM [inhibitor, partial curve, poor fit]"
2,O=C(CSc1nc(-c2ccccc2)[nH]c1-c1ccccc1)Nc1ccc2c(c1)OCCO2,"inconclusive: 10 µM [inhibitor, partial curve]"
3,CC(/C=C/c1ccco1)=N\NC(=O)CNc1cccc(C)c1,"inconclusive: 79.4 µM [inhibitor, single point]"
4,CCOC(=O)C1=C(c2ccccc2)N=c2s/c(=C\c3cccc(O)c3)c(=O)n2C1c1cccs1 (centres undefined),"inconclusive: 12.6 µM [inhibitor, partial curve, poor fit]"
5,O=C(Cn1ccc(C(F)(F)F)n1)Nc1cccc(S(=O)(=O)N2CCCCC2)c1,"inconclusive: 28.2 µM [inhibitor, full curve]"
6,Cc1cc(NC(=O)CSCc2nc(-c3cccc(F)c3)oc2C)no1,"inconclusive: 89.1 µM [inhibitor, partial curve, poor fit]"
7,NC(=O)CN1C(=O)C2C3C=CC(C3)C2C1=O (centres undefined),"inconclusive: 7.94 µM [inhibitor, partial curve, poor fit]"
8,CC[C@H](C)[C@H](NC(N)=O)C(=O)Nc1ccc(OC)c(Cl)c1,inactive
9,O=C(Nc1ccc2ncccc2c1)c1ccccc1Cl,active: 10 µM
10,CCOC(=O)c1c(C)oc2c1c1c(c3ccccc32)OCN(CCCC(=O)O)C1,active: 8.91 µM
11,CC(Sc1nnc(-c2cccnc2)n1N)C(=O)NCCC1=CCCCC1 (centres undefined),active: 56.2 µM
12,O=C(CN1CCCCC1)N1CCc2ccccc21,inactive
13,COc1ccc(C(O)C(CN2CCOCC2)c2ccccc2)cc1F (centres undefined),"inconclusive: 3.55 µM [inhibitor, full curve, poor fit]"
14,CN(C)c1ccc(C=NC(CO)C(O)c2ccc([N+](=O)[O-])cc2)cc1 (centres undefined),inactive
15,COCCCNC(=S)Nc1ccc(C)cc1[N+](=O)[O-],"inconclusive: 89.1 µM [inhibitor, single point]"
16,CCCN(CCC)S(=O)(=O)c1ccc(Cl)c([N+](=O)[O-])c1,"inconclusive: 50.1 µM [inhibitor, partial curve, poor fit]"
17,CCOc1ccc(Nc2ccc(C(=O)O)cc2[N+](=O)[O-])cc1,"inconclusive: 100 µM [inhibitor, single point]"
18,Cc1nn(-c2ccccc2)c(C)c1/C=N/Nc1nc2ccccc2[nH]1,"inconclusive: 25.1 µM [inhibitor, single point]"
19,Cc1cccc(Sc2nc(-c3ccccc3)ncc2C(=O)O)c1,"inconclusive: 89.1 µM [inhibitor, single point]"
